According to PubChem BioAssay AID1631 (National Center for Advancing Translational Sciences (NCATS), 2009):
In all, about 260,000 compounds went through this assay and about 890 (0.34%) were called active. Inconclusive means that the source gave no clear call. Such entries were picked first, then a sample of the others. Calls come from the whole dose curve; as a rule, active = well fitted activation curve with a large enough effect; inconclusive = small, poorly fitted or top-dose-only effect; inactive = no such curve, though single readings can be large or run the other way. Where the call is inconclusive, the potency comes from a doubtful curve fit.

molecular target: Pyruvate kinase PKM (Homo sapiens) (UniProt P14618); experiment: qHTS Assay for Activators of Human Muscle isoform 2 Pyruvate Kinase; conditions: purified PKM2, Kinase-Glo ATP luminescence; Potency: activation; activation: at 57.5 µM (top of the series), 0% is enzyme alone, no compound; note: nearly all actives have a fitted effect of over 55% in size
Chain of UniProt P14618 (P14618 whole entry, looked up, canonical isoform): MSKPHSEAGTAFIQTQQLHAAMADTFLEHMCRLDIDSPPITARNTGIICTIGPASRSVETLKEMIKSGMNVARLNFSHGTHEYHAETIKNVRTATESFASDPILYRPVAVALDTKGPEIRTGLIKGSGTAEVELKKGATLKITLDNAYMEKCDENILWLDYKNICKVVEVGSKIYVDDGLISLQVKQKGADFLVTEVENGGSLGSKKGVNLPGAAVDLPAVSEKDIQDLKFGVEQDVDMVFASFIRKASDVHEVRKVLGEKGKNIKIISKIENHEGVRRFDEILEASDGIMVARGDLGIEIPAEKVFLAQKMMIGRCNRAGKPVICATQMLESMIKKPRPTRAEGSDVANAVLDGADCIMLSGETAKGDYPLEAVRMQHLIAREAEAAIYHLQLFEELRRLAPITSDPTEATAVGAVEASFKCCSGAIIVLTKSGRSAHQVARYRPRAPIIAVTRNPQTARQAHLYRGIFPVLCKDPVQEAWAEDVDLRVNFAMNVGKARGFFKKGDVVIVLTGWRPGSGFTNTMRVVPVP
Summary of the method: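 Purified hPK-M2 (>95%) run at intermediate activity with 0.1 mM ADP and 0.5 mM PEP in 50 mM imidazole pH 7.2, KCl, MgCl2; 1 h room temperature. ATP formed read by Kinase-Glo luminescence; normalized to uninhibited and no-enzyme controls.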
% is set by controls: 0 for no effect and ±100 for the full control effect; potency is the fitted concentration of half-maximal effect; tags give direction and shape of the fitted curve.

activation, inactive:
O=C(N/N=C/c1ccco1)c1cccc(N2CCCC2=O)c1 -13.5%, COc1ccccc1N1C(=O)CC(N2CCN(c3ccc(Cl)cc3)CC2)C1=O (stereo not given) -6.4%, CC(=O)Nc1ccc(NCN2C(=O)[C@@H]3[C@H]4CC[C@H](C4)[C@@H]3C2=O)cc1 -4.92%, O=C(Nc1cc(Sc2ccccn2)cc([N+](=O)[O-])c1)c1cccc(Cl)c1 -3.02%, COC(=O)c1c(-c2ccc(C)cc2)csc1NC(=S)NC(=O)c1cc(OC)cc(OC)c1 -3.55%, Cc1cc(C(=O)Nc2cc(C(C)(C)C)on2)c(C)o1 -15.6%, O=C(NCCOc1ccccc1Cl)c1ncn[nH]1 0.356%, CC(=O)Nc1ccc2cc3ccc(NC(C)=O)cc3nc2c1 8.49%, CN1CCc2c(sc(N)c2C(N)=O)C1 1.97%, CN(c1ccccc1)c1nc(N)c(C#N)c(CC#N)c1C#N -4.57%, C/C(=N\NC(=O)Cc1ccccc1)c1ccc(Cl)s1 -7.88%

Potency, inconclusive:
O=C(CCS(=O)(=O)c1ccc(Cl)cc1)N1CCN(S(=O)(=O)c2cccs2)CC1 15.8 µM [rising, partial curve], O=C(CSc1nnc(-c2ccco2)c(-c2ccco2)n1)Nc1ccccc1 22.4 µM [rising, partial curve], O=C(c1ccc(Cl)cc1)C1CCCN(C(=O)/C=C/c2ccccn2)C1 (stereo not given) 28.2 µM [rising, single point], CCC(C)c1ccccc1NC(=O)c1[nH]c(C)c(C(C)=O)c1C (stereo not given) 12.6 µM [rising, partial curve], O=C(CSc1nnc(Cc2cc(=O)[nH]c(=O)[nH]2)n1-c1ccccc1)N1CCCCC1 0.562 µM [rising, single point], COC(=O)c1cccnc1SCc1ccccc1 39.8 µM [rising, single point], NC12CC3CC(C1)CC(O)(C3)C2 39.8 µM [rising, single point], O=C(CCS(=O)(=O)c1ccccc1)Nc1ccc(-c2nc3ccccc3s2)cc1 39.8 µM [rising, single point], Cc1sc2ncnc(Sc3nnnn3-c3ccccc3)c2c1C 10 µM [rising, partial curve], CCn1c(=O)cc(SCC(=O)NCc2ccc(C)o2)c2ccccc21 28.2 µM [rising, single point], COc1ccc(N(C(C)C(=O)Nc2ccc(S(=O)(=O)N3CCOCC3)cc2)S(C)(=O)=O)cc1 (stereo not given) 0.0056 µM [rising, full curve, poor fit], CNC(=O)C(=O)NCCN1CCN(C(=O)c2ccc([N+](=O)[O-])cc2)CC1 35.5 µM [rising, single point], O=C(C1CCCO1)N1CCN(S(=O)(=O)c2ccccc2)CC1 (stereo not given) 14.1 µM [rising, partial curve, poor fit], CCOC(=O)c1snc(-c2ccc(F)cc2)c1N 10 µM [rising, partial curve], Cc1ccc(/C=C/C(=O)NCc2ccccn2)o1 28.2 µM [rising, single point], COCCn1c(-c2ccc(C#N)cc2)nc2c1c(=O)[nH]c(=O)n2Cc1ccccc1 25.1 µM [rising, single point], CC(C)Cn1c(C(C)C)nc([N+](=O)[O-])c1Sc1ccc(Cl)cn1 39.8 µM [rising, single point], COc1cc2c(cc1OC)C(c1ccccc1N)=NCC2 39.8 µM [rising, single point], CC(C)(C)CN1CCNC(=O)C1CC(=O)NCCc1ccccc1F (stereo not given) 35.5 µM [rising, single point], Cc1nnc(SCC(=O)Nc2nccs2)o1 20 µM [rising, partial curve], Cc1ccc(S(=O)(=O)N2CCN(CC(O)c3ccccc3)CC2)cc1 (stereo not given) 35.5 µM [rising, single point], OCC1(Cc2ccccc2)CCN(Cc2cnc(-c3cccc4ccccc34)nc2)CC1 35.5 µM [rising, single point], CCOC(=O)C1=C(C)NC(C)=C(C(=O)OCC)C1C(=O)OCC(=O)N1CCc2ccccc21 25.1 µM [rising, single point], O=C(Nc1cccc(S(=O)(=O)N2CCOCC2)c1)c1cnccn1 35.5 µM [rising, single point], Nc1ccccc1Sc1cc(Cl)nnc1Cl 31.6 µM [rising, partial curve], Cc1ccc(CNC(=O)C2CC(c3cccc([N+](=O)[O-])c3)=NO2)o1 (stereo not given) 25.1 µM [rising, partial curve], COC(=O)c1c(-c2ccccc2)csc1NC(=O)C1CC=CCC1C(=O)O (stereo not given) 39.8 µM [rising, single point], CS(=O)(=O)Nc1ccc(C2=NN(C(=O)c3ccco3)C(c3cccc(F)c3)C2)cc1 (stereo not given) 25.1 µM [rising, single point], COc1ccccc1C(=O)N/C(=C/c1ccco1)C(=O)Nc1ccc(C(=O)O)cc1 25.1 µM [rising, single point], O=C(OCCN1C(=O)c2ccccc2C1=O)C1CCN(S(=O)(=O)c2cccs2)CC1 22.4 µM [rising, partial curve], C=CCn1c(=O)c2c(nc3n2CCCN3CCc2ccccc2)n(C)c1=O 14.1 µM [rising, partial curve], Cc1nc2ccc(NC(=O)c3nn(CC(C)C)c(=O)c4ccccc34)cc2s1 0.891 µM [rising, full curve, poor fit], CC(CCc1ccco1)NC(=O)c1cc2c(-c3ccccc3F)nn(C)c2s1 (stereo not given) 3.98 µM [rising, full curve]

Potency, active:
CNS(=O)(=O)c1cc2c3c(cccc3c1)C(=O)NC2=O 12.6 µM
